Target: BRD4-HA (cytoplasmic version), O60885

B1: HA-tagged Abl (protein)
chain: MLEICLKLVGCKSKKGLSSSSSCYLEEALQRPVASDFEPQGLSEAARWNSKENLLAGPSE[about 60 residues not given here]LEKHSWYHGPVSRNAAEYLLSSGINGSFLVRESESSPGQRSISLRYEGRVYHYRINTASDGKLYVSSESRFNTLAELVHHHSTVADGLITTLHYPAPKRNKPTVYGVSPNYDKWEMERTDITMKHKLGGGQYGEVYEGVWKKYSLTVAVKTLKEDTMEVEEFLKEAAVMKEIKHPNLVQLLGVCTREPPFYIITEFMTYGNLLDYLRECNRQEVNAVVLLYMATQISSAMEYLEKKNFIHRDLAARNCLVGENHLVKVADFGLSRLMTGDTYTAHAGAKFPIKWTAPESLAYNKFSIKSDVWAFGVLLWEIATYGMSPYPGIDLSQVYELLEKDYRMERPEGCPEKVYELMRACWQWNPSDRPSFAEIHQAFETMFQESSISDEVEKELGKQGVRGAVSTLLQAPELPTKTRTSRRAAEHRDTTDVPEMPHSKGQGESDPLDHEPAVSPLLPRKERGPPEGGLNEDERLLPKDKKTNLFSALIKKKKKTAPTPPKRSSSFREMDGQPERRGAGEEEGRDISNGALAFTPLDTADPAKSPKPSNGAGVPNGALRESGGSGFRSPHLWKKSSTLTSSRLATGEEEGGGSSSKRFLRSCSASCVPHGAKDTEWRSVTLPRDLQSTGRQFDSSTFGGHKSEKPALPRKRAGENRSDQVTRGTVTPPPRLVKKNEEAADEVFKDIMESSPGSSPPNLTPKPLRRQVTVAPASGLPHKEEAGKGSALGTPAAAEPVTPTSKAGSGAPGGTSKGPAEESRVRRHKHSSESPGRDKGKLSRLKPAPPPPPAASAGKAGGKPSQSPSQEAAGEAVLGAKTKATSLVDAVNSDAAKPSQPGEGLKKPVLPATPKPQSAKPSGTPISPAPVPSTLPSASSALAGDQPSSTAFIPLISTRVSLRKTRQPPERIASGAITKGVVLDSTEALCLAISRNSEQMASHSAVLEAGKNLYTFCVSYVDSIQQMRNKFAFREAINKLENNLRELQICPATAGSGPAATQDFSKLLSSVKEISDIVQR
With B1 as the protein, how does the “p-BRD4 (pan pTyr antibody) on BRD4-HA (Cytoplasmic), after IP” value read?
The value was “p-BRD4 bands in the lanes VS812, AD107 (Meta) and AD100 (Para); weak band with AD95 (Ortho); faint with VS875; none with DMSO; BRD4-HA (after IP), Abl-HA and Actin (before IP) about equal in all six lanes; VS812 is drawn on D00021 as the Abl binder alone, without a BRD4-binding part”.

Source: US20240024490
